Data published in PubChem BioAssay AID504333 (National Center for Advancing Translational Sciences (NCATS), 2011).
Hit rate of the full screen: of about 360,000 compounds, about 16,000 (4.4%) were called active. This list was built around the results that the source calls inconclusive (neither active nor inactive); the mix of calls is not that of the screen. The call rests on the fitted dose curve; in most records, active means well fitted inhibition curve with a large enough effect; inconclusive means small, poorly fitted or top-dose-only effect; inactive means no such curve, though single readings can be large or run the other way. Potencies beside an inconclusive call are fits to weak or partial responses and may not hold up.

These compounds were tested against Bromodomain adjacent to zinc finger domain protein 2B (Homo sapiens) (UniProt Q9UIF8) (assay: qHTS Assay for Inhibitors of BAZ2B). Details: AlphaScreen BAZ2B-H3K14Ac peptide displacement; activity change, negative = inhibition: at 114 µM (top of the series) unless noted.
Summary of the method: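 In this displacement format the biotinylated H3(5-23) peptide acetylated at Lys14 serves as ligand at 50 nM, with BAZ2B at 50 nM in PBS pH 7.4 containing 0.01% Tween-20. Donor and acceptor beads are 10 ug/mL final.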
Further: nearly all actives have a fitted effect of over 60% in size.
On the % scale 0 is the no-effect control and ±100 the full control effect; potency means the concentration at half of the fitted maximal effect; tags describe the fitted curve by direction and shape.

UniProt Q9UIF8, sequence (Q9UIF8 whole entry, looked up, the tested form may be a part): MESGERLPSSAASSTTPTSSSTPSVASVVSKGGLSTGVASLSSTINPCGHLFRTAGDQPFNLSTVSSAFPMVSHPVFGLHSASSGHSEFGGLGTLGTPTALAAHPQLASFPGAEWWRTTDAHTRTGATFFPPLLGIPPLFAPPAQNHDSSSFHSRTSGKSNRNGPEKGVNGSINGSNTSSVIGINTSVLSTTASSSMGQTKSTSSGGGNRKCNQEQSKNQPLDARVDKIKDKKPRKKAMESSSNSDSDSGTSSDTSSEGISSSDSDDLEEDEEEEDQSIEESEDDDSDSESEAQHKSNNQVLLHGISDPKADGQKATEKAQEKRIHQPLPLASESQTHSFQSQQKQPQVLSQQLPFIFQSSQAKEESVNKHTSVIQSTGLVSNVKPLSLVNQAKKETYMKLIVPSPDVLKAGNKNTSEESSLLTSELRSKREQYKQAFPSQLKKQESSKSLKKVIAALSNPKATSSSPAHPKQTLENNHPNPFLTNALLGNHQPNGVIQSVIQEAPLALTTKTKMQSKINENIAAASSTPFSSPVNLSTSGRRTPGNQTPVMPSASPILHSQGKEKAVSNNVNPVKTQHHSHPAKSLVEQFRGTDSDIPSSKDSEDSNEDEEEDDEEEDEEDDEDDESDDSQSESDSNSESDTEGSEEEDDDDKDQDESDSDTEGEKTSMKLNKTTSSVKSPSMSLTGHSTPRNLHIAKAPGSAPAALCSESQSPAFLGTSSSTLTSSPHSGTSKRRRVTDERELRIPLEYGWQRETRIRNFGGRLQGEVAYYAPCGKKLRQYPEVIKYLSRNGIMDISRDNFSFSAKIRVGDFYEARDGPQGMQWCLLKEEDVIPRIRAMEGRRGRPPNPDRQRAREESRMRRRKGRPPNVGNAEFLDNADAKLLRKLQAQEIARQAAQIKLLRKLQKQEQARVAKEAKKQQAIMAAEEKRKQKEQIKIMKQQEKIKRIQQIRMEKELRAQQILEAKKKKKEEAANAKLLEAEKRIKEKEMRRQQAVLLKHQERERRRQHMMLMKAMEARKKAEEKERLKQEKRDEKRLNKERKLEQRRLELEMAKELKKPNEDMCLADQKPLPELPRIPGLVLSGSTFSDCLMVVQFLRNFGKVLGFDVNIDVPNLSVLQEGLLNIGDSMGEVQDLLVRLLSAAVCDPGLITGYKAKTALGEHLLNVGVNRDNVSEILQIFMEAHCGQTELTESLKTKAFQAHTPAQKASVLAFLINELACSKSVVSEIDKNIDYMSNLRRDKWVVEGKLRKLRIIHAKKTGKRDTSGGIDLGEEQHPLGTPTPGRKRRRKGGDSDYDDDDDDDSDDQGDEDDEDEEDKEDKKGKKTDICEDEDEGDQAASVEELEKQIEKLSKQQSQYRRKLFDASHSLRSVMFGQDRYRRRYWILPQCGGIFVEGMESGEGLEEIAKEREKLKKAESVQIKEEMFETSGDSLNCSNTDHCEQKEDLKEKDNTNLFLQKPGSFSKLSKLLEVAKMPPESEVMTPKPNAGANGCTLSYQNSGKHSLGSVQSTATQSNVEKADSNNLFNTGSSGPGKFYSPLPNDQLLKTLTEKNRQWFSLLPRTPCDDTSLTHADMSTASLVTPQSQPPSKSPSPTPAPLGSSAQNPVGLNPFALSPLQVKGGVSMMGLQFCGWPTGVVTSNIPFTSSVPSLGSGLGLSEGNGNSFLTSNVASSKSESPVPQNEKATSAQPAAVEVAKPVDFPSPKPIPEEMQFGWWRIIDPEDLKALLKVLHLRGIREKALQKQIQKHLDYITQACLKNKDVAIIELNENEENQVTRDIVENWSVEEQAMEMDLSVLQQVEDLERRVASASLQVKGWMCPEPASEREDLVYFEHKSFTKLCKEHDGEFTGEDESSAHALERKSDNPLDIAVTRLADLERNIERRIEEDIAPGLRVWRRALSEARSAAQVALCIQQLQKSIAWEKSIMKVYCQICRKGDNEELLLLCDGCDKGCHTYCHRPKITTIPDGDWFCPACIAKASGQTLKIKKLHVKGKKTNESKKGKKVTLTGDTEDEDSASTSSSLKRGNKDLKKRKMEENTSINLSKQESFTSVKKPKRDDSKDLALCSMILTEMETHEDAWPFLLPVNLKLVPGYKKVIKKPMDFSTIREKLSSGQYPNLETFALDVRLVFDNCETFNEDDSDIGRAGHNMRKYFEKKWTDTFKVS

SMILES	Potency	activity change, negative = inhibition
COc1ccc(OC)c(NC(=O)c2c(NCc3ccc(C)o3)sc3c2CCC(C)C3)c1 (stereo not given)	inconclusive: 35.5 µM [inhibitor, full curve]	–
O=C(O)c1cc(-c2ccco2)nc2cc3ccccc3cc12	active: 56.2 µM	–
O=C(NNC(=O)c1cccnc1)Nc1ccccc1	inconclusive: 79.4 µM [inhibitor, single point]	–
O=C(N/N=C1\NC(=O)C(CO)(CO)S1)c1ccccc1	–	inactive: -14.4%
O=[N+]([O-])c1ccc(N2CCN(C(=S)Nc3ccc(F)cc3F)CC2)cc1	inconclusive: 56.2 µM [inhibitor, partial curve]	–
O=C(N/N=C/c1cc2c(cc1[N+](=O)[O-])OCO2)c1ccc2c(c1)OCO2	–	inactive: 6.41%
CC(C)(C)C(=O)Nc1ccc(/C=C/C(=O)c2ccco2)cc1	–	inactive: -8.57%
O=C(N/N=C/c1ccc(O)cc1O)C(=O)N/N=C/c1ccc(O)cc1O	active: 35.5 µM	–
O=C(NCC(c1cccnc1)N1CCN(Cc2ccccc2)CC1)C(=O)Nc1ccc(Cl)cc1 (stereo not given)	–	inactive: -20.7%
CSC(SC)=C(C(C)=O)C(=O)c1ccc(C)cc1	–	inactive: -6.81%
CC(C)N1CCN(Cc2ccc(Sc3nncn3C)o2)CC1CCO (stereo not given)	–	inactive: -0.865%
COc1ccccc1C(=O)NCC1CCN(c2ccc(S(=O)(=O)N3CCOCC3)cc2)CC1	inconclusive: 0.794 µM [inhibitor, full curve]	–
Cc1ccc2[nH]c3c(c2c1)CN(C(=O)CN1CCCCC1)CC3	inconclusive: 79.4 µM [inhibitor, single point]	–
CC(C(=O)NCc1ccco1)n1cc(C(=O)c2ccco2)c2ccccc21 (stereo not given)	inconclusive: 89.1 µM [inhibitor, single point]	–
O=C(COC(=O)CCC(=O)c1ccccc1)Nc1nnc(-c2ccccc2)o1	inconclusive: 89.1 µM [inhibitor, single point]	–
Cc1ccc(OCCNC(=O)c2cc(-n3cnnc3)ccc2Cl)cc1C	inconclusive: 89.1 µM [inhibitor, single point]	–
CCOC(=O)CCCCC(=O)c1[nH]c(=O)[nH]c1CSc1nc(-c2ccccc2)c(C#N)c(=O)[nH]1	active: 35.5 µM	–
C/C(CC(=O)Nc1ccccn1)=N\NC(=O)c1ccc(C)cc1	inconclusive: 100 µM [inhibitor, single point]	–
COc1cc(/C=C(/C#N)C(=O)NC(C)c2ccccc2)cc(OC)c1O (stereo not given)	inconclusive: 50.1 µM [inhibitor, partial curve]	–
Cc1ccc(CN2CCCn3nc(C(=O)NCCc4ccc(Cl)cc4)cc3C2=O)cc1	–	inactive: -33.2%
CCCCCn1cnc2c(=S)nc(N)[nH]c21	inconclusive: 89.1 µM [inhibitor, single point]	–
NCCNC(=O)Cn1c(=O)c2c3c(sc2n(Cc2ccccc2)c1=O)CCCC3	inconclusive: 79.4 µM [inhibitor, single point]	–
CCN1/C(=C/c2ccc3cccc(C)c3[n+]2CC)Sc2ccccc21	active: 50.1 µM	–
FC(F)(F)c1ccccc1/C=N/n1c(COc2ccccc2)n[nH]c1=S	inconclusive: 20 µM [inhibitor, full curve]	–

SMILES	Potency	activity change, negative = inhibition
Cc1ccccc1C(=O)N1CCC(C(=O)OCc2nc(N)nc(Nc3ccccc3)n2)CC1	–	inactive: 3.21%
COc1ccc(C2CC(c3ccc4ccccc4c3)=NN2C(=O)CNC2CCCCC2)cc1 (stereo not given)	active: 56.2 µM	–
CCOc1ccc(CCNC(=O)COC(=O)c2cc(S(=O)(=O)N3CCOCC3)ccc2F)cc1OCC	inconclusive: 89.1 µM [inhibitor, single point]	–
CC(=O)N1Cc2cc([N+](=O)[O-])ccc2Oc2ccccc21	–	inactive: -8.86%
CC(C)CN=Cc1c(O)c([N+](=O)[O-])cc2oc3c(c12)CCCC3	inconclusive: 44.7 µM [inhibitor, partial curve]	–
Oc1ccc(/C=N/Nc2cc(N3CCCC3)nc(N3CCCC3)n2)cc1O	inconclusive: 44.7 µM [inhibitor, partial curve]	–
CC(C)(OC(=O)NC(=O)C(F)(F)F)C(C)(C)OC(=O)NC(=O)C(F)(F)F	inconclusive: 89.1 µM [inhibitor, single point]	–
O=C(Nc1cccc([N+](=O)[O-])c1)c1ccc2ccccc2c1O	–	inactive: -28.6%
COc1ccc(N=C2NC(=O)/C(=C/c3ccc(O)c(OC)c3)S2)cc1	inconclusive: 79.4 µM [inhibitor, single point]	–
FC(F)(F)COc1nc(N/N=C/c2cccnc2)nc(N2CCCCC2c2ccccn2)n1 (stereo not given)	inconclusive: 79.4 µM [inhibitor, single point]	–
Cc1ccc(S(=O)(=O)n2nnc3ccccc32)c(C)c1C	inconclusive: 89.1 µM [inhibitor, partial curve]	–
CCN(CC)CCN1C(=O)C(=O)/C(=C(/O)c2c(C)[nH]c(C(=O)OC)c2C)C1c1cccs1 (stereo not given)	inconclusive: 89.1 µM [inhibitor, single point]	–
O=C(C1CCCN(Cc2ccccc2C(F)(F)F)C1)N1CCCCC1 (stereo not given)	active: 50.1 µM	–
COc1ccc(N2CC(C(=O)NCCN3C(=O)S/C(=C\c4cccnc4)C3=O)CC2=O)c(OC)c1 (stereo not given)	inconclusive: 89.1 µM [inhibitor, single point]	–
CCc1ccccc1NC(=O)C(Cc1cccc(OC)c1OC)c1nn[nH]n1 (stereo not given)	inconclusive: 89.1 µM [inhibitor, single point]	–
COCCCNC(=O)c1c(NC(=O)c2nc(S(C)(=O)=O)ncc2Cl)sc2c1CCCC2	–	inactive: 2.72%
CC(C)OC(=O)CC1C(=O)NCCN1C(=S)NC(=O)c1ccccc1 (stereo not given)	inconclusive: 89.1 µM [inhibitor, single point]	–
COc1ccc(N2CCN(C(=O)c3cn(C4CCCC4)c(=O)c4c3c3ccccc3n4C)CC2)cc1	inconclusive: 70.8 µM [inhibitor, single point]	–
O=C(Nc1ccc2ccccc2c1)c1cc(F)c(F)cc1Cl	inconclusive: 89.1 µM [inhibitor, single point]	–
Cc1cccc([C@@H]2[C@@H]3C(=O)N(Cc4ccccc4)C(=O)[C@@H]3[C@]3(C)C(=O)N(c4ccc(C(F)(F)F)cc4)C(=O)N23)c1	–	inactive: -7.1%
Cc1ccc2[nH]cc(CCNC(=O)CN3C(=O)c4ccccc4C3=O)c2c1	inconclusive: 44.7 µM [inhibitor, partial curve]	–
Cc1cc(NC(=O)CCCn2c(C)c3cnn(-c4ccccc4)c(=O)c3c2C)ccc1Br	inconclusive: 79.4 µM [inhibitor, partial curve]	–
COc1ccc(NC(=O)CC(c2ccc(F)cc2)c2ccc(OC(C)C)cc2)cc1 (stereo not given)	–	inactive: 3.26%
O=C(/C=C/c1ccco1)Nc1ccccc1N1CCCC1	inconclusive: 50.1 µM [inhibitor, partial curve]	–

SMILES	Potency	activity change, negative = inhibition
CCOc1ccccc1NC(=O)CN1C(=O)CC(c2ccco2)Sc2ccccc21 (stereo not given)	inconclusive: 50.1 µM [inhibitor, partial curve]	–
Cc1cc(C)cc(C(=O)N(Cc2nc(-c3ccc(Cl)cc3)no2)C(C)C)c1	–	inactive: 15.8%
CC(Sc1nnc(-c2ccc(Cl)cc2Cl)n1Cc1ccccc1)C(=O)Nc1nccs1 (stereo not given)	–	inactive: -7.17%
COc1ccc(-c2[nH]c(-c3ccc(C)cc3)nc2SCC(=O)NC2CCCC2)cc1	inconclusive: 44.7 µM [inhibitor, partial curve]	–
Fc1ccc(-n2c(CN3CCCCC3)n[nH]c2=S)cc1	–	inactive: -11%
O=S(=O)(c1ccc2ccccc2c1)n1nc(-c2ccco2)nc1NCc1ccc(F)cc1	inconclusive: 50.1 µM [inhibitor, partial curve]	–
COc1cccc(Nc2nc(-c3sc(C)nc3C)cs2)c1	inconclusive: 44.7 µM [inhibitor, partial curve]	–
Cc1ccc(SCC(=O)c2ccc(CC(=O)O)s2)cc1	active: 50.1 µM	–
O=C(Nc1ccc(C(=O)O)cc1)Nc1cccc2ccccc12	inconclusive: 0.794 µM [inhibitor, full curve, poor fit]	–
C(=C\c1ccccn1)/c1ccncc1	inconclusive: 89.1 µM [inhibitor, single point]	–
CCCCNS(=O)(=O)c1ccc(OCC(=O)OC)cc1	–	inactive: 8.38%
COc1ccc(OC)c2c(N3CC(C)OC(C)C3)cc(C(F)(F)F)nc12 (stereo not given)	inconclusive: 89.1 µM [inhibitor, single point]	–
COc1ccc(OC)c(NC(=S)N(CCc2c(C)[nH]c3ccc(C)cc23)Cc2cccs2)c1	inconclusive: 10 µM [inhibitor, full curve, poor fit]	–
CCC(=O)N1c2ccccc2CC1C(=O)NCc1ccccc1C (stereo not given)	–	inactive: -4.39%
FC(F)(F)c1ccccc1NC(=S)N/N=C1\CC2CC=CC12 (stereo not given)	active: 70.8 µM	–
Clc1ccc(CN2CCN(c3ncccn3)CC2)cc1	inconclusive: 89.1 µM [inhibitor, single point]	–
Fc1ccc(CN2CCN3CCCC3C2C2CCCCC2)cc1F (stereo not given)	inconclusive: 89.1 µM [inhibitor, single point]	–
CCOc1cc(/C=C2/C(=O)ON=C2C)ccc1OCc1ccccc1F	inconclusive: 89.1 µM [inhibitor, single point]	–
COc1ccc(C(=O)N/N=C/c2cc3ccccc3[nH]c2=S)cc1	inconclusive: 5.01 µM [inhibitor, single point]	–
O=C(C1=C(O)C(=O)N(CC2CCCO2)C1c1ccccc1)c1ccco1 (stereo not given)	–	inactive: -2.32%
O=C(N/N=C\C=C\c1ccc(Br)cc1)c1ccc2c(c1)OCO2	inconclusive: 70.8 µM [inhibitor, single point]	–
CC(C)Cn1c(-c2ccco2)n[nH]c1=S	inconclusive: 3.98 µM [inhibitor, single point]	–
